Data taken from paper PMC4336329 (PLoS ONE, 2015).
Among all 310,000 compounds or so, about 2,200 (0.71%) showed an effect of 50% or more. The effect is printed as a negative number. This is one part of the list.

Molecular target: human ether-à-go-go-related gene (hERG) potassium channel (human, UniProt Q12809)
Assay: primary screen, population patch clamp on CHO cells stably expressing hERG

human ether-à-go-go-related gene (hERG) potassium channel, sequence (Q12809 whole entry, looked up): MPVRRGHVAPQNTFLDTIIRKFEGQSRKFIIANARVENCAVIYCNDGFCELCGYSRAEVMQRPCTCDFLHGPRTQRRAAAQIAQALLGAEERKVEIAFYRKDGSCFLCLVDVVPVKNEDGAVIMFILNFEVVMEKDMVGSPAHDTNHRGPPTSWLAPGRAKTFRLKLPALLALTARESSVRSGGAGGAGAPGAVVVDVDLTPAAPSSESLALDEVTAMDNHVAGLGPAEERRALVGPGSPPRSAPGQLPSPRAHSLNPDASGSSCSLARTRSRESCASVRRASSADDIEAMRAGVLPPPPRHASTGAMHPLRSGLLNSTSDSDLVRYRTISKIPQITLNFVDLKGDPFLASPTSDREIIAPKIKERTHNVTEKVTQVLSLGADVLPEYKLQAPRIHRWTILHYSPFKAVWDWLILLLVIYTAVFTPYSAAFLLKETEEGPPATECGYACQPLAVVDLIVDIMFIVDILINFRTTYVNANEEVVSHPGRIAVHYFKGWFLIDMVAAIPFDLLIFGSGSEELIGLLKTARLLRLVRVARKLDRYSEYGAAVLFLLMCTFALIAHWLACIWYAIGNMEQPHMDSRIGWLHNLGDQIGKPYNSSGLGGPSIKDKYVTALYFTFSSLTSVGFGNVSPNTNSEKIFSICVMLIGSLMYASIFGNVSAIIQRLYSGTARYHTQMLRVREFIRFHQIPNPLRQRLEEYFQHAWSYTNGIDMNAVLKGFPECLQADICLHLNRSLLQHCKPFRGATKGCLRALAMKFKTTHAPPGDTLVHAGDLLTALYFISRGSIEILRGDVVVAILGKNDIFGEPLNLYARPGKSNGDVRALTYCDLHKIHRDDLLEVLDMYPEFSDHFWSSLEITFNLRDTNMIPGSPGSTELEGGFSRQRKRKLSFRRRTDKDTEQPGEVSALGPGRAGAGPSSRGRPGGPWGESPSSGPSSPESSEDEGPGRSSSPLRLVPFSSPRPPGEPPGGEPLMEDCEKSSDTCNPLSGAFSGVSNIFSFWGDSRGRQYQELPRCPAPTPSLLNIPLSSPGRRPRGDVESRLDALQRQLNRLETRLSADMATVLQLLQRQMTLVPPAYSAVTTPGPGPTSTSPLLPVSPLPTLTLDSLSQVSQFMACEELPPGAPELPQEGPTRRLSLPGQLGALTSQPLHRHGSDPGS

SMILES | hERG current change (%, negative = inhibition) at 1uM [%]
O=C(CCN1C(=O)/C(=C/c2ccccc2Cl)SC1=S)NC1C=CS(=O)(=O)C1 (stereo not drawn) | 14
COc1ccccc1CCn1cnc2c3cc(C)ccc3n(C)c2c1=O | 10.5
CCCSc1nnc(-c2ccccc2NC(=O)CC)c(=O)[nH]1 | 4.33
O=C(CN1CCN(Cc2ccccc2)CC1)NNC(=O)c1ccccc1 | 9.08
COc1cccc(C(=O)NCCn2ccc3ccccc32)c1 | 18.3
CCOc1cc(/C=N/NC(=O)c2ccncc2)cc(Cl)c1OS(C)(=O)=O | 3.53
Cl.O=S(=O)(c1ccc2nc(COc3ccccc3)[nH]c2c1)N1CCOCC1 | 5.33
O=C(COC(=O)CC1CC2CCC1C2)Nc1cccc(S(=O)(=O)NC2=NCCCCC2)c1 (stereo not drawn) | 3.77
C/C(=N\NC(=O)CNc1cccc2ccccc12)c1ccccc1 | 12.2
Cn1cc(/C=N/n2cnc3scc(-c4ccccc4)c3c2=O)c2ccccc21 | 3.02
COc1ccc2c(C)nc(Nc3nc(C)cc(C)n3)nc2c1 | 7.06
CC1=CC(=C2C(=O)NC(=O)NC2=O)C=C(C(F)(F)F)N1C(C)C | -11.7
CCSc1ccccc1C(=O)Nc1cccc(OC)c1 | 5.26
Cc1ccc(C)c(-c2nnc(OCC(=O)Nc3cc(C)on3)c3ccccc23)c1 | 1.7
CCCOc1ccc(N2C(=O)CC(N3CCC(c4nncn4CC)CC3)C2=O)cc1 (stereo not drawn) | 5.38
Cc1sc2ncnc(N3CCC(C(=O)Nc4ccc(Br)cc4Br)CC3)c2c1C | 7.67
CCc1nnc(NC(=O)CSc2nnc3c4ccccc4n(C)c3n2)s1 | 15.5
Cc1ccc(S(=O)(=O)n2c([N+](=O)[O-])cnc2C)c(C)c1C | 28.4
CNC(=S)NNC(=O)COc1ccc(C)c(C)c1 | 4.61
COc1ccccc1N1CCN(C(=O)CCCNC(=O)Cn2cnc3sc(C)c(C)c3c2=O)CC1 | 12.1
COc1cc([N+](=O)[O-])ccc1NC(=O)CCCOc1cccc(C)c1C | 1.26
Cc1cccc(-c2noc(CCC(=O)NCc3ccco3)n2)c1 | 0.384
C/C(=N\NC(=O)c1c(Cl)c(C)nn1C)c1cccc(NC(=O)COc2ccccc2)c1 | 11

SMILES | hERG current change (%, negative = inhibition) at 1uM [%]
O=C(CC1SC(N2CCOCC2)=NC1=O)Nc1ccccc1Cl (stereo not drawn) | 18.5
COc1cc(C(C)=O)ccc1COc1ccc(C(=O)OC(C)C(=O)NC(N)=O)cc1OC (stereo not drawn) | 4.72
[O-]/[N+](=C/c1ccccc1)c1ccccc1 | 9.93
CN(Cc1c(C(=O)N/N=C/c2ccc(O)cc2)nnn1-c1nonc1N)c1ccccc1 | 15.5
O=C(O)c1ccc(CSc2nnc(-c3ccccc3Br)o2)cc1 | 13.5
COc1cccc(C(=S)N2CCCC2)c1OC | 10.8
Cc1cc(C)n(CCN(C)C(=O)CCc2nnc(CCC3CCCCC3)o2)n1 | 3.53
CC1(C)Oc2ccc(C(=O)NC3CCCC3)cc2N(CC(=O)NC2CCCCC2)C1=O | 12
COc1cccc(C(C(=O)NC2CCCCC2)N(C(=O)c2ccco2)c2ccccc2OC)c1 (stereo not drawn) | -2.11
Cn1nc(-c2ccccc2)c(C(O)c2ccccc2C(F)(F)F)c1Cl (stereo not drawn) | 16.1
O=C(O)COc1ccccc1-c1ccccc1 | 14.5
C=C[C@@H]1c2cc(C)ccc2N(S(=O)(=O)c2ccc(C)cc2)[C@H](c2ccc(OC(C)=O)cc2)C1(C#N)C#N | 13.1
O=C(Cc1ccccc1)Nc1ccc(-c2nnc(-c3ccco3)o2)cc1 | -1.72
N#Cc1cccnc1N1CCN(C(=O)c2cccc3c2C(=O)c2ccc(Cl)cc2S3(=O)=O)CC1 | 1.64
Cc1ccc(S(=O)(=O)Nc2cc3c(C(=O)Nc4ccccc4)c(C)oc3c3ccccc23)cc1 | 8.66
Cc1ccc(OCC(=O)Nc2ccccc2[N+](=O)[O-])c(Br)c1 | 20.9
CCOC(=O)C(C(=O)OCC)C(C#N)c1ccccc1 (stereo not drawn) | 6.84
Cc1ccc(Nc2nnc(C(C)(C)C)c(=O)n2N)cc1 | 2.86
COc1cc2[nH]c(=S)nc(NC3CCCCCC3)c2cc1OC | 22.2
CC(C)OC(=O)c1c(NC(=O)c2ccco2)sc2c1CCCC2 | 4.04
Cn1cc(CNCC2CCCO2)c(-c2ccc(Oc3ccccc3)cc2)n1 (stereo not drawn) | 9.67
Cc1cccc(NC(=O)C2(C)CC3c4ccccc4C2c2ccccc23)c1 (stereo not drawn) | 10.3
COC(=O)Cc1c(C)c2ccc(OC(=O)c3ccccc3)cc2oc1=O | -4.1

SMILES | hERG current change (%, negative = inhibition) at 1uM [%]
COc1cc(/C=C2\SC(=Nc3ccccc3)N(Cc3ccco3)C2=O)ccc1OC(C)C(=O)O (stereo not drawn) | 10.7
COC(=O)c1cc2sc(Cl)cc2n1CC(=O)NCC1CCCO1 (stereo not drawn) | 12.1
Cc1c(NC(=O)CSc2ccccn2)c(=O)n(-c2ccccc2)n1C | 8.52
CCc1ccc(S(=O)(=O)Nc2cc3c(cc2N2CCCCC2)n(C)c(=O)c(=O)n3C)cc1 | -18
Cn1cc([N+](=O)[O-])c(C(=O)N/N=C\c2c[nH]c3ccccc23)n1 | -9.91
COc1ccc(CNC(=O)CN(C)S(=O)(=O)c2ccccc2)cc1 | 8.51
COc1ccc(C(=O)C2CCCN(Cc3cc(Cl)ccc3O)C2)c(OC)c1 (stereo not drawn) | 12.6
CC/C(O)=C1\C(=O)CC(C)(C)CC1=Nc1ccccc1C | 9.22
Cc1cc(-c2n[nH]c(=S)n2-c2ccc(C)c(C)c2)no1 | 9.72
O=C(CCn1nc(-c2ccccc2)ccc1=O)NCCCN1CCCCCC1 | -19.2
CC1SCC(NC(=O)c2cccc(Cl)c2)CS1 (stereo not drawn) | 1.12
C(=N\n1cnnc1)/c1cccs1 | 5.5
CCc1cc(=O)oc2cc(C)cc(O)c12 | 5.7
CN(C)CCOCCP(=O)(c1ccccc1)c1ccccc1 | -1.59
N#Cc1c(-c2ccccc2)nc(SCc2cccc(C(F)(F)F)c2)[nH]c1=O | 16.7
O=C(COC(=O)C1COc2ccccc2O1)NC(=O)NC1CCCC1 (stereo not drawn) | 13.1
Cn1c(CNC(=O)Nc2ccccc2Cl)nnc1SCc1ccccc1 | 2.3
Cc1cc(NC(=O)CSc2nc3c(cc2C#N)CCCC3)no1 | 6.73
COc1ccc2c(c1OC)C(=O)N1c3ccccc3SC21 (stereo not drawn) | 3.14
Cc1cc(C)n(-c2ccc(C(F)(F)F)cc2[N+](=O)[O-])n1 | 8.1
Cc1cc(-c2n[nH]c(=S)n2/N=C/C(Cl)=C/c2ccccc2)n[nH]1 | 5.13
Cc1cc(C)c(NC(=O)Nc2ccccc2)c(C)n1 | 20.2
NC(=O)c1cc(-c2ccccc2)nc(N2CCCCCC2)n1 | 19.9

SMILES | hERG current change (%, negative = inhibition) at 1uM [%]
CCCCn1nc2cc(C(=O)N(CC)c3ccc(OC)cc3)ccc2c1OCC | 16
Cc1cc(C)n(-c2nnc(C)n2/N=C/c2ccco2)n1 | 15.3
Nc1cccc(-c2cc(-c3ccccc3)nc(-c3cccc(N)c3)n2)c1 | 4.73
CNC(=O)C(=O)NCCN1CCN(C(=O)c2ccc([N+](=O)[O-])cc2)CC1 | 9.09
O=C(N/N=C1\CCCc2oc(C(=O)O)cc21)c1ccccc1 | -18.2
O=C(CN1CCc2ccccc2C1)Nc1cccc(S(=O)(=O)N2CCOCC2)c1 | 4.21
COc1cccc(-c2nc(=S)c3c(o2)CCCC3)c1 | 14.1
CNC(=O)OCCSCCS(=O)(=O)c1ccc(Cl)cc1 | 7.55
Cc1ccc(NC(=O)CCc2c(C)[nH]c(=O)c(C#N)c2C)cc1 | 9.52
Cc1c(F)cccc1NS(=O)(=O)c1ccccc1C#N | 9.46
CC(C)n1cnc2c(=S)nc[nH]c21 | 15.7
CCOC(=O)C1(C)NC(c2ccc(OC)cc2OC)C2C(=O)N(CC)C(=O)C21 (stereo not drawn) | 16.4
Cn1nc(-c2ccccc2)c(-c2nc(-c3ccccc3Cl)no2)c1Cl | 6.29
Nc1nonc1-n1nnc(C(=O)N/N=C/c2ccc(OCc3cccc(Cl)c3)cc2)c1CN1CCCCC1 | 21.6
CC(C)(C)C(=O)Cn1ncc(N2CCOCC2)c(Br)c1=O | 12.2
Clc1ccc(CSc2nnc(-c3ccncc3)o2)c(Cl)c1 | 16.3
COc1cccc(C(C)NC(=O)Nc2ccccc2Cl)c1 (stereo not drawn) | 10.2
COc1ccc(NC(=O)c2cc(C)on2)cc1 | -1.54
CC(=O)NC(CCS(C)(=O)=O)C(=O)Nc1cccc(C)c1 (stereo not drawn) | 4.79
Cc1cc(C)c2nc3c(c(C(=O)O)c2c1)CCC3 | 13.6
CC12CCC(C(=O)N(CCCCN3CCN(Cc4ccccc4)CC3)C1=O)C2(C)C.Cl (stereo not drawn) | -4.08
